These binders were tested against MBP tagged 53BP1 fragment (a.a. 1484-1603) (assay: BLI, fold change Ka of Ubv/Ka of CM203).

Binder | binding result
L69K (CM368) (designed binder) Ubv: MHHHHHHGGSGYLIFVRMLTGKMIELEVEPSDTIENIKAKIQDHEGIPLDQQRLTFQGKLLEDGRTLSDYNLLIDPKKMKVLRMQ | binds
L69A (CM358) (designed binder) Ubv: MHHHHHHGGSGYLIFVRMLTGKMIELEVEPSDTIENIKAKIQDHEGIPLDQQRLTFQGKLLEDGRTLSDYNLLIDPKKMAVLRMQ | binds
L69T (CM372) (designed binder) Ubv: MHHHHHHGGSGYLIFVRMLTGKMIELEVEPSDTIENIKAKIQDHEGIPLDQQRLTFQGKLLEDGRTLSDYNLLIDPKKMTVLRMQ | binds
L69W (CM 373) (designed binder) Ubv: MHHHHHHGGSGYLIFVRMLTGKMIELEVEPSDTIENIKAKIQDHEGIPLDQQRLTFQGKLLEDGRTLSDYNLLIDPKKMWVLRMQ | binds
L69N (CM360) (designed binder) Ubv: MHHHHHHGGSGYLIFVRMLTGKMIELEVEPSDTIENIKAKIQDHEGIPLDQQRLTFQGKLLEDGRTLSDYNLLIDPKKMNVLRMQ | binds
L69E (CM363) (designed binder) Ubv: MHHHHHHGGSGYLIFVRMLTGKMIELEVEPSDTIENIKAKIQDHEGIPLDQQRLTFQGKLLEDGRTLSDYNLLIDPKKMEVLRMQ | binds
L69F (CM370) (designed binder) Ubv: MHHHHHHGGSGYLIFVRMLTGKMIELEVEPSDTIENIKAKIQDHEGIPLDQQRLTFQGKLLEDGRTLSDYNLLIDPKKMFVLRMQ | binds
L69D (CM361) (designed binder) Ubv: MHHHHHHGGSGYLIFVRMLTGKMIELEVEPSDTIENIKAKIQDHEGIPLDQQRLTFQGKLLEDGRTLSDYNLLIDPKKMDVLRMQ | binds
L69H (CM366) (designed binder) Ubv: MHHHHHHGGSGYLIFVRMLTGKMIELEVEPSDTIENIKAKIQDHEGIPLDQQRLTFQGKLLEDGRTLSDYNLLIDPKKMHVLRMQ | binds
L69R (CM359) (designed binder) Ubv: MHHHHHHGGSGYLIFVRMLTGKMIELEVEPSDTIENIKAKIQDHEGIPLDQQRLTFQGKLLEDGRTLSDYNLLIDPKKMRVLRMQ | binds
L69S (CM371) (designed binder) Ubv: MHHHHHHGGSGYLIFVRMLTGKMIELEVEPSDTIENIKAKIQDHEGIPLDQQRLTFQGKLLEDGRTLSDYNLLIDPKKMSVLRMQ | binds
L69G (CM365) (designed binder) Ubv: MHHHHHHGGSGYLIFVRMLTGKMIELEVEPSDTIENIKAKIQDHEGIPLDQQRLTFQGKLLEDGRTLSDYNLLIDPKKMGVLRMQ | binds
L69Y (CM374) (designed binder) Ubv: MHHHHHHGGSGYLIFVRMLTGKMIELEVEPSDTIENIKAKIQDHEGIPLDQQRLTFQGKLLEDGRTLSDYNLLIDPKKMYVLRMQ | binds
L69I (CM367) (designed binder) Ubv: MHHHHHHGGSGYLIFVRMLTGKMIELEVEPSDTIENIKAKIQDHEGIPLDQQRLTFQGKLLEDGRTLSDYNLLIDPKKMIVLRMQ | binds
L69Q (CM364) (designed binder) Ubv: MHHHHHHGGSGYLIFVRMLTGKMIELEVEPSDTIENIKAKIQDHEGIPLDQQRLTFQGKLLEDGRTLSDYNLLIDPKKMQVLRMQ | binds
L69M (CM369) (designed binder) Ubv: MHHHHHHGGSGYLIFVRMLTGKMIELEVEPSDTIENIKAKIQDHEGIPLDQQRLTFQGKLLEDGRTLSDYNLLIDPKKMMVLRMQ | binds
L69V (CM375) (designed binder) Ubv: MHHHHHHGGSGYLIFVRMLTGKMIELEVEPSDTIENIKAKIQDHEGIPLDQQRLTFQGKLLEDGRTLSDYNLLIDPKKMVVLRMQ | binds
L69C (CM362) (designed binder) Ubv: MHHHHHHGGSGYLIFVRMLTGKMIELEVEPSDTIENIKAKIQDHEGIPLDQQRLTFQGKLLEDGRTLSDYNLLIDPKKMCVLRMQ | binds

The binders below were run against MBP tagged 53BP1 fragment (a.a. 1484-1603) (assay: BLI, fold change Ka of Ubv/Ka of CM429).

Binder | binding result
CM455, His-tagged (designed binder) MHHHHHHGGSGYMIFVRMLTGKMIELEVEPSDTIENIKAKIQDHEGIPLDQQRLTFQGKLLEDGRTLSDYNLTISPEKMAVLRMQ | binds
P62A (CM441) (designed binder) Ubv: MHHHHHHGGSGYMIFVRMLTGKMIELEVEPSDTIENIKAKIQDHEGIPLDQQRLTFQGKLLEDGRTLSDYNLAISPEKMAVLRMQ | binds
P62C (CM445) (designed binder) Ubv: MHHHHHHGGSGYMIFVRMLTGKMIELEVEPSDTIENIKAKIQDHEGIPLDQQRLTFQGKLLEDGRTLSDYNLCISPEKMAVLRMQ | binds

These binders were tested against MBP tagged 53BP1 fragment (a.a. 1484-1603) (assay: BLI, fold change Ka of Ubv/Ka of CM203 [cont.]).

Binder | binding result
V70T (CM391) (designed binder) Ubv: MHHHHHHGGSGYLIFVRMLTGKMIELEVEPSDTIENIKAKIQDHEGIPLDQQRLTFQGKLLEDGRTLSDYNLLIDPKKMLTLRMQ | binds
V70P (CM389) (designed binder) Ubv: MHHHHHHGGSGYLIFVRMLTGKMIELEVEPSDTIENIKAKIQDHEGIPLDQQRLTFQGKLLEDGRTLSDYNLLIDPKKMLPLRMQ | no binding
V70F (CM388) (designed binder) Ubv: MHHHHHHGGSGYLIFVRMLTGKMIELEVEPSDTIENIKAKIQDHEGIPLDQQRLTFQGKLLEDGRTLSDYNLLIDPKKMLFLRMQ | binds
V70A (CM376) (designed binder) Ubv: MHHHHHHGGSGYLIFVRMLTGKMIELEVEPSDTIENIKAKIQDHEGIPLDQQRLTFQGKLLEDGRTLSDYNLLIDPKKMLALRMQ | binds
V70Q (CM382) (designed binder) Ubv: MHHHHHHGGSGYLIFVRMLTGKMIELEVEPSDTIENIKAKIQDHEGIPLDQQRLTFQGKLLEDGRTLSDYNLLIDPKKMLQLRMQ | binds
V70W (CM392) (designed binder) Ubv: MHHHHHHGGSGYLIFVRMLTGKMIELEVEPSDTIENIKAKIQDHEGIPLDQQRLTFQGKLLEDGRTLSDYNLLIDPKKMLWLRMQ | binds
V70D (CM379) (designed binder) Ubv: MHHHHHHGGSGYLIFVRMLTGKMIELEVEPSDTIENIKAKIQDHEGIPLDQQRLTFQGKLLEDGRTLSDYNLLIDPKKMLDLRMQ | no binding
V70N (CM378) (designed binder) Ubv: MHHHHHHGGSGYLIFVRMLTGKMIELEVEPSDTIENIKAKIQDHEGIPLDQQRLTFQGKLLEDGRTLSDYNLLIDPKKMLNLRMQ | binds
V70E (CM381) (designed binder) Ubv: MHHHHHHGGSGYLIFVRMLTGKMIELEVEPSDTIENIKAKIQDHEGIPLDQQRLTFQGKLLEDGRTLSDYNLLIDPKKMLELRMQ | no binding
V70I (CM385) (designed binder) Ubv: MHHHHHHGGSGYLIFVRMLTGKMIELEVEPSDTIENIKAKIQDHEGIPLDQQRLTFQGKLLEDGRTLSDYNLLIDPKKMLILRMQ | binds
V70M (CM387) (designed binder) Ubv: MHHHHHHGGSGYLIFVRMLTGKMIELEVEPSDTIENIKAKIQDHEGIPLDQQRLTFQGKLLEDGRTLSDYNLLIDPKKMLMLRMQ | binds
V70Y (CM393) (designed binder) Ubv: MHHHHHHGGSGYLIFVRMLTGKMIELEVEPSDTIENIKAKIQDHEGIPLDQQRLTFQGKLLEDGRTLSDYNLLIDPKKMLYLRMQ | binds
V70S (CM390) (designed binder) Ubv: MHHHHHHGGSGYLIFVRMLTGKMIELEVEPSDTIENIKAKIQDHEGIPLDQQRLTFQGKLLEDGRTLSDYNLLIDPKKMLSLRMQ | binds
V70C (CM380) (designed binder) Ubv: MHHHHHHGGSGYLIFVRMLTGKMIELEVEPSDTIENIKAKIQDHEGIPLDQQRLTFQGKLLEDGRTLSDYNLLIDPKKMLCLRMQ | binds
V70G (CM383) (designed binder) Ubv: MHHHHHHGGSGYLIFVRMLTGKMIELEVEPSDTIENIKAKIQDHEGIPLDQQRLTFQGKLLEDGRTLSDYNLLIDPKKMLGLRMQ | binds
V70K (CM386) (designed binder) Ubv: MHHHHHHGGSGYLIFVRMLTGKMIELEVEPSDTIENIKAKIQDHEGIPLDQQRLTFQGKLLEDGRTLSDYNLLIDPKKMLKLRMQ | binds
V70R (CM377) (designed binder) Ubv: MHHHHHHGGSGYLIFVRMLTGKMIELEVEPSDTIENIKAKIQDHEGIPLDQQRLTFQGKLLEDGRTLSDYNLLIDPKKMLRLRMQ | binds
V70H (CM384) (designed binder) Ubv: MHHHHHHGGSGYLIFVRMLTGKMIELEVEPSDTIENIKAKIQDHEGIPLDQQRLTFQGKLLEDGRTLSDYNLLIDPKKMLHLRMQ | binds

— patent US20230135471A1 (INTEGRATED DNA TECHNOLOGIES, published 2023)
